# Experimental data as given in the supplement of paper PMC4166925.
# ± gives the standard deviation of the averaged measurements. In all, about 33,000 sequences were measured (“E-score (dimensionless, -0.5 to 0.5)”: median about -0.046, highest 2% from about 0.36 on). Some of the results follow.
# Test system: T1, SpTbr T-box DNA-binding domain (GST fusion)
# T1 sequence: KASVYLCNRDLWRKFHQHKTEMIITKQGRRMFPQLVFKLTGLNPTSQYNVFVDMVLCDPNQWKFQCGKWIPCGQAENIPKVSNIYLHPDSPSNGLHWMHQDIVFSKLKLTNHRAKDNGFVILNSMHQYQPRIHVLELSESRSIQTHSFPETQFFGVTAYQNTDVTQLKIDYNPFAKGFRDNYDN
# Assay: PBM E-score of 8-mer (E-score (dimensionless, -0.5 to 0.5)); Tbr is Tbrain of the sea star Patiria miniata (Pm) or the sea urchin Strongylocentrotus purpuratus (Sp); higher = stronger binding preference; most listed sequences are background and not binding sites
# Settings: the construct has about 5 more residues each side
# In short: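 Primer extension turned Universal Agilent oligonucleotide arrays double-stranded. They were incubated with 200 nM protein in PBS (pH 7.5); the protein was a GST-fused Tbr T-box DNA-binding domain expressed in BL21 E. coli at 20 °C and purified on glutathione. Every ungapped 8-mer was scored from the scanned, quantified probe intensities, and the Universal PBM Analysis Suite gave each an enrichment E-score averaged over duplicate arrays.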
row,Sequence,PBM E-score of 8-mer
1,CTAGCTGC,0.0411 ± 0.039
2,CGGGAGCC,-0.154 ± 0.0025
3,CCTGTCCG,-0.0247 ± 0.049
4,CCTGCTTC,-0.0253 ± 0.016
5,CATATGCA,-0.0874 ± 0.034
6,GGAAGGCC,-0.3562 ± 0.0021
7,GTGCAAAC,0.362 ± 0.016
8,ACCCAAAG,-0.245 ± 0.012
9,GTGTAGCA,0.0717 ± 0.046
10,CGTCAACA,0.356 ± 0.0058
11,AGCTTAGA,-0.192 ± 0.053
12,AGGTGATA,0.428 ± 0.015
13,CAAGAGTG,0.129 ± 0.018
14,TACGAAGA,-0.147 ± 0.027
15,AGCTTACT,-0.144 ± 0.015
16,AAGGCAGC,-0.0936 ± 0.075
17,ACATATTG,0.0587 ± 0.083
18,CACCCGGG,0.301 ± 0.052
19,CCAGAAAG,-0.0587 ± 0.042
20,CAGCAACA,0.0872 ± 0.056
21,ATCAATCG,0.0277 ± 0.019
22,AGGCACCC,-0.131 ± 0.015

row,Sequence,PBM E-score of 8-mer
1,CCGGGCAC,-0.17 ± 0.095
2,CGATGGTC,-0.228 ± 0.014
3,ATTCGGAG,-0.231 ± 0.026
4,CCTTGTAG,-0.115 ± 0.046
5,CATAATGA,-0.059 ± 0.023
6,GGGCCCGA,-0.311 ± 0.0069
7,GAAGTCAC,-0.0282 ± 0.03
8,CTCTCAAG,0.0211 ± 0.00057
9,ATTGTGCA,-0.0635 ± 0.021
10,ATCGACTG,-0.112 ± 0.02
11,TATTTACA,-0.0226 ± 0.11
12,CTCCCCCC,-0.301 ± 0.072
13,AGCTCTTC,-0.148 ± 0.065
14,TCCGACAA,0.0636 ± 0.0061
15,CCTGCCAC,0.24 ± 0.032
16,CTTTTCGC,0.253 ± 0.0066
17,TCAAAACA,-0.0641 ± 0.14
18,AATTTGTC,0.225 ± 0.026
19,ATGCTCTA,-0.383 ± 0.028
20,TATAAGAA,-0.0729 ± 0.012
21,CGGGTGAG,0.272 ± 0.026
22,GAATGAAA,-0.11 ± 0.061

row,Sequence,PBM E-score of 8-mer
1,CTTATAAG,-0.176 ± 0.052
2,ACTAGATG,-0.108 ± 0.0075
3,CGGTGTCA,0.398 ± 0.02
4,AACACTCC,0.283 ± 0.039
5,AAAGCTCC,-0.327 ± 0.0046
6,AACGGGTG,0.171 ± 0.071
7,CCCCGGCG,-0.151 ± 0.1
8,ACCCGCTG,0.115 ± 0.016
9,CTCCGACC,-0.19 ± 0.027
10,CAACTCCG,-0.0205 ± 0.067
11,AGCTAAGC,-0.0428 ± 0.0065
12,ATCCGCAA,-0.0387 ± 0.07
13,AACGTAGA,-0.263 ± 0.076
14,CTCTTGCC,-0.0138 ± 0.047
15,AAACGGGC,-0.147 ± 0.032
16,TCACTCAA,-0.0225 ± 0.028
17,GCTTACCC,-0.0588 ± 0.05
18,ATATTTCG,0.157 ± 0.045
19,AAGTATGC,-0.00957 ± 0.004
20,ATGCCGTC,-0.0234 ± 0.07
21,GCTTAATA,-0.175 ± 0.049
22,ATGGTCTG,-0.14 ± 0.07

row,Sequence,PBM E-score of 8-mer
1,CATTCGAA,-0.139 ± 0.062
2,ATTCGTTG,-0.119 ± 0.044
3,GATGGGAC,-0.0989 ± 0.058
4,GATGTAAC,-0.0143 ± 0.042
5,GATCCACA,0.153 ± 0.018
6,AAATTCCG,0.0048 ± 0.067
7,TGCCGGAA,0.00701 ± 0.028
8,GCTGTTTA,-0.00322 ± 0.026
9,GACGACTA,0.0751 ± 0.046
10,ACACTATC,0.315 ± 0.037
11,TCACACCA,0.4853 ± 0.0026
12,CCTCTCCA,-0.0753 ± 0.045
13,CAGAATGC,0.0116 ± 0.023
14,AGCCGGTC,-0.23 ± 0.05
15,CGTCTTCA,0.0585 ± 0.015
16,ACGGGTGA,0.154 ± 0.07
17,GCCCACGC,-0.00206 ± 0.064
18,CATAATTC,-0.0609 ± 0.065
19,ACGAGTCA,-0.0179 ± 0.03
20,AAATGTAC,-0.164 ± 0.017
